Source: patent EP0708091A1, “Indoloylguanidine derivatives” (SUMITOMO PHARMACEUTICALS COMPANY, LIMITED, priority 1994, dated 1996)
Counter-ions that a name gives are not always drawn. At least one compound was matched to its structure with a doubt left.

biological target: T1, Na⁺/H⁺ exchanger (Rattus norvegicus, UniProt P26431); test: Inhibition of Na+/H+ exchanger activity in vitro (change in cell viability during acid loading); format: cell-based; design: key: *: not measurable due to cytotoxicity; conditions: cells marked *: not measurable due to cytotoxicity; vascular smooth muscle cells isolated from the rat thoracic aorta
T1 construct: using the vascular smooth muscle cells isolated from the rat thoracic aorta; endogenous in cells; host or cells: primary vascular smooth muscle cells isolated from rat thoracic aorta
T1 sequence (P26431 whole entry): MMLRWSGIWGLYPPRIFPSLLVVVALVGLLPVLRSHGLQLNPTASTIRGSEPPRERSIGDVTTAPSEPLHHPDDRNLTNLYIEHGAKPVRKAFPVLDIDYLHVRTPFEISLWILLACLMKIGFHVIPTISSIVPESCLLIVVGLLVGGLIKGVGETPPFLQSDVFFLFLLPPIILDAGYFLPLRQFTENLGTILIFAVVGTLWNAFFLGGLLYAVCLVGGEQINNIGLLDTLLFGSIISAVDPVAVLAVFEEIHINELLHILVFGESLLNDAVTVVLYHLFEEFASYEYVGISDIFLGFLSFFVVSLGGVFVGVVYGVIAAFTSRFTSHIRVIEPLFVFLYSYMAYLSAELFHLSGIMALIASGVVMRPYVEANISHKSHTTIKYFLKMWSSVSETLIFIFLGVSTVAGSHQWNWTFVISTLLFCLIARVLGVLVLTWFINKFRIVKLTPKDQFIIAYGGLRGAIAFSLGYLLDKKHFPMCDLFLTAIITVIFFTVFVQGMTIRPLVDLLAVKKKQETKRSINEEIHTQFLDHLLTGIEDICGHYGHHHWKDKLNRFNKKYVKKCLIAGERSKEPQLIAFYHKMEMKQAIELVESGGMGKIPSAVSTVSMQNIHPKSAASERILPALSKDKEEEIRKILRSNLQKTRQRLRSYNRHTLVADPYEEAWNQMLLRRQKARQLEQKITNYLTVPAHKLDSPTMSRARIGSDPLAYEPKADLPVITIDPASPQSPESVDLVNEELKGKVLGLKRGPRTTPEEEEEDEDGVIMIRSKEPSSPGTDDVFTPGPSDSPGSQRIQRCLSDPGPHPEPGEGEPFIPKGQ
Experimental: Inhibition of Na+/H+ exchanger activity in vitro Method:
The experiment was performed by modifying the method of Mungre et al. described in Exp. Cell Res., 193, 236 (1991). That is, inhibition of the Na⁺/H⁺ exchanger activity was evaluated by the change in cell viability during acid loading, using the vascular smooth muscle cells isolated from the rat thoracic aorta.
The compounds of the present invention shown in Examples were evaluated by the minimum effective concentration (MEC) for the inhibition of the Na⁺/H⁺ exchanger activity.

Row | Compound | Inhibition of Na^+/H^+ Exchanger MEC
1 | N=C(N)NC(=O)c1cc2ccccc2n1Cc1ccc(Br)cc1 [Example 37, 1-(4-Bromobenzyl)-2-indoloylguanidine hydrochloride] | *
2 | Cn1c(C(=O)NC(=N)N)cc2cccc(OCCCc3ccccc3)c21 [Example 60, 1-Methyl-7-(3-phenylpropoxy)-2-indoloylguanidine hydrochloride] | *
3 | Cn1c(C(=O)N=C(N)N)cc2c(C(F)(F)F)ccc(OCc3ccccc3)c21 [Example 183, 7-Benzyloxy-1-methyl-4-trifluoromethyl-2-indoloylguanidine hydrochloride] | *
4 | Cn1c(C(=O)NC(=N)N)cc2c(OCc3ccccc3)cccc21 [Example 46, 4-Benzyloxy-1-methyl-2-indoloylguanidine hydrochloride] | *

same assay, conditions: minimum effective concentration (MEC); change in cell viability during acid loading; vascular smooth muscle cells isolated from the rat thoracic aorta

Row | Compound | Inhibition of Na^+/H^+ Exchanger MEC
5 | Cn1c(C(=O)NC(=N)N)cc2ccc(OCC(=O)O)cc21 [Example 137, 6-Carboxymethoxy-1-methyl-2-indoloylguanidine hydrochloride] | >1 µM
6 | Cn1c(C(=O)NC(=N)N)cc2c(Cl)ccc(OCCO)c21 [Example 125, 4-Chloro-7-(2-hydroxyethoxy)-1-methyl-2-indoloylguanidine hydrochloride] | 0.01 µM
7 | NC(N)=NC(=O)c1cc2ccccc2n1O [Example 101, 1-hydroxy-2-indoloylguanidine hydrochloride] | >10 µM
8 | N=C(N)NC(=O)c1cc2c(Cl)cccc2n1CCN1CCCC1 [Example 145, 4-Chloro-1-[2-(N-pyrrolidinyl)ethyl]-2-indoloylguanidine dihydrochloride] | 10 µM
9 | Cn1c(C(=O)NC(=N)N)cc2cccc(NC(=O)CCc3ccccc3)c21 [Example 112, 1-methyl-7-(3-phenylpropionamido)-2-indoloylguanidine hydrochloride] | >10 µM
10 | Cn1c(C(=O)NC(=N)N)cc2ccc(OCc3ccccc3)cc21 [Example 50, 6-Benzyloxy-1-methyl-2-indoloylguanidine hydrochloride] | 1.0 µM
11 | Cn1c(C(=O)NC(=N)N)cc2ccc(OCCCN)cc21 [Example 119, 6-(3-Aminopropoxy)-1-methyl-2-indoloylguanidine dihydrochloride] | 0.1 µM
12 | COc1ccc2cc(C(=O)N=C(N)N)n(C)c2c1 [Example 23, 6-Methoxy-1-methyl-2-indoloylguanidine hydrochloride] | 0.3 µM
13 | Cn1c(C(=O)N=C(N)N)cc2c(C(F)(F)F)cccc21 [Example 29, 1-Methyl-4-trifluoromethyl-2-indoloylguanidine hydrochloride] | 0.03 µM
14 | Cn1c(C(=O)NC(=N)N)cc2c(CN)cccc21 [Example 116, 4-aminomethyl-1-methyl-2-indoloylguanidine dihydrochloride] | >10 µM
15 | Cn1ccc2cccc(C(=O)N=C(N)N)c21 [Example 28, 1-Methyl-7-indoloylguanidine hydrochloride] | >10 µM
16 | CN(CCOc1ccc(Cl)c2cc(C(=O)NC(=N)N)n(C)c12)Cc1ccccc1 [Example 75, 7-[2-(N-Benzyl-N-methylamino)ethoxy]-4-chloro-1-methyl-2-indoloylguanidine dihydrochloride] | 0.3 µM
17 | N=C(N)NC(=O)c1cc2ccccc2n1CCCCO [Example 110, 1-(4-Hydroxybutyl)-2-indoloylguanidine hydrochloride] | 0.3 µM
18 | Cn1c(C(=O)N=C(N)N)cc2c(Cl)ccc(Oc3ccc([N+](=O)[O-])cc3)c21 [Example 200, 4-chloro-1-methyl-7-(4-nitrophenoxy)-2-indoloylguanidine hydrochloride] | 0.01 µM
19 | Cc1c(C(=O)NC(=N)N)n(C)c2ccccc12 [Example 47, 1,3-Dimethyl-2-indoloylguanidine hydrochloride] | 3.0 µM
20 | COCCn1c(C(=O)N=C(N)N)cc2c(Cl)cccc21 [Example 71, 4-Chloro-1-(2-methoxyethyl)-2-indoloylguanidine hydrochloride] | 0.03 µM
21 | NC(N)=NC(=O)c1cc2ccccc2[nH]1 [Example 18, 2-Indoloylguanidine hydrochloride] | 10 µM
22 | CC(C)n1ccc2cc(C(=O)N=C(N)N)ccc21 [Example 21, 1-Isopropyl-5-indoloylguanidine hydrochloride] | 1.0 µM
23 | NC(N)=NC(=O)c1cc2ccccc2n1Cc1ccc(N)cc1 [Example 107, 1-(4-aminobenzyl)-2-indoloylguanidine hydrochloride] | 0.1 µM
24 | Cn1c(C(=O)N=C(N)N)cc2c(Cl)cc(Oc3ccccc3N)cc21 [Example 186, 6-(2-aminophenoxy)-4-chloro-1-methyl-2-indoloylguanidine hydrochloride] | 0.003 µM
25 | Cn1c(C(=O)NC(=N)N)cc2c(F)cccc21 [Example 55, 4-Fluoro-1-methyl-2-indoloylguanidine hydrochloride] | 0.1 µM
26 | Cn1c(C(=O)N=C(N)N)cc2cccc(NCCCN)c21 [Example 152, 7-[(3-aminopropyl)amino]-1-methyl-2-indoloylguanidine dihydrochloride] | 0.3 µM

Row | Compound | Inhibition of Na^+/H^+ Exchanger MEC
27 | Cn1c(C(=O)N=C(N)N)cc2c(Cl)ccc(OCc3cccc(N)c3)c21 [Example 206, 7-(3-Aminobenzyloxy)-4-chloro-1-methyl-2-indoloylguanidine hydrochloride] | 0.03 µM
28 | Cn1c(C(=O)N=C(N)N)cc2cccc(OCc3ccccc3)c21 [Example 34, 7-Benzyloxy-1-methyl-2-indoloylguanidine hydrochloride] | 3.0 µM
29 | N=C(N)NC(=O)c1cc2ccccc2n1CCN [Example 115, 1-(2-Aminoethyl)-2-indoloylguanidine dihydrochloride] | >10 µM
30 | CN(C)CCCn1c(C(=O)NC(=N)N)cc2ccccc21 [Example 142, 1-(3-Dimethylaminopropyl)-2-indoloylguanidine dihydrochloride] | 3 µM
31 | Cn1c(C(=O)NC(=N)N)cc2cccc(O)c21 [Example 92, 7-Hydroxy-1-methyl-2-indoloylguanidine hydrochloride] | 0.3 µM
32 | Cn1c(C(=O)N=C(N)N)cc2cc([N+](=O)[O-])ccc21 [Example 27, 1-Methyl-5-nitro-2-indoloylguanidine hydrochloride] | 3.0 µM
33 | NC(N)=NC(=O)c1cc2ccccc2n1Cc1ccccc1 [Example 15, 1-Benzyl-2-indoloylguanidine hydrochloride] | 0.3 µM
34 | Cc1ccc(OCCN)c2c1cc(C(=O)NC(=N)N)n2C [Example 174, 7-(2-Aminoethoxy)-1,4-dimethyl-2-indoloylguanidine dihydrochloride] | 0.1 µM
35 | Cn1c(C(=O)N=C(N)N)cc2c([N+](=O)[O-])cccc21 [Example 24, 1-Methyl-4-nitro-2-indoloylguanidine hydrochloride] | 0.3 µM
36 | N=C(N)NC(=O)c1ccc2ccn(Cc3ccccc3)c2c1 [Example 43, 1-Benzyl-6-indoloylguanidine hydrochloride] | 10 µM
37 | CC(=O)Nc1cccc2c1cc(C(=O)NC(=N)N)n2C [Example 97, 4-acetamido-1-methyl-2-indoloylguanidine hydrochloride] | >10 µM
38 | CC(C)COc1cccc2c1cc(C(=O)NC(=N)N)n2C [Example 57, 4-Isobutyloxy-1-methyl-2-indoloylguanidine hydrochloride] | 1.0 µM
39 | Cn1c(C(=O)N=C(N)N)cc2c(Cl)cc(OCc3cccc(N)c3)cc21 [Example 207, 6-(3-Aminobenzyloxy)-4-chloro-1-methyl-2-indoloylguanidine hydrochloride] | 0.01 µM
40 | Cn1c(C(=O)NC(=N)N)cc2c(Cl)cc(O)cc21 [Example 96, 4-Chloro-6-hydroxy-1-methyl-2-indoloylguanidine hydrochloride] | 0.03 µM
41 | Cn1c(C(=O)N=C(N)N)cc2cc(NC(=O)c3ccccc3)ccc21 [Example 103, 5-benzamido-1-methyl-2-indoloylguanidine hydrochloride] | >10 µM
42 | CC(C)c1cccc2c1cc(C(=O)NC(=N)N)n2C [Example 77, 4-Isopropenyl-1-methyl-2-indoloylguanidine hydrochloride] | 0.3 µM
43 | NC(N)=NC(=O)c1ccc2[nH]ccc2c1 [Example 20, 5-Indoloylguanidine hydrochloride] | 1.0 µM
44 | N=C(N)NC(=O)c1cc2ccccc2n1CCCCc1ccccc1 [Example 41, 1-(4-Phenylbutyl)-2-indoloylguanidine hydrochloride] | 1.0 µM
45 | N=C(N)NC(=O)c1cc2c(F)cccc2n1CCCN [Example 181, 1-(3-Aminopropyl)-4-fluoro-2-indoloylguanidine dihydrochloride] | 1 µM
46 | Cn1ccc2c(C(=O)N=C(N)N)cccc21 [Example 4, 1-methyl-4-indoloylguanidine hydrochloride] | >10 µM
47 | CCN(CC)CCn1c(C(=O)NC(=N)N)cc2c(Cl)cccc21 [Example 79, 4-Chloro-1-(2-diethylaminoethyl)-2-indoloylguanidine dihydrochloride] | 3.0 µM
